Laboratory results taken from PMC4336329 (PLoS ONE, 2015).
Screen size: about 310,000 compounds; about 14,000 (4.5%) showed an effect of 50% or more. Effects have a minus sign here. The list shows a part of the results.

target: human ether-à-go-go-related gene (hERG) potassium channel (human, UniProt Q12809); assay: primary screen, population patch clamp on CHO cells stably expressing hERG
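Further: peak tail current of the secondary pulse compared with the same well before compound.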

Chain of human ether-à-go-go-related gene (hERG) potassium channel (Q12809 whole entry, looked up): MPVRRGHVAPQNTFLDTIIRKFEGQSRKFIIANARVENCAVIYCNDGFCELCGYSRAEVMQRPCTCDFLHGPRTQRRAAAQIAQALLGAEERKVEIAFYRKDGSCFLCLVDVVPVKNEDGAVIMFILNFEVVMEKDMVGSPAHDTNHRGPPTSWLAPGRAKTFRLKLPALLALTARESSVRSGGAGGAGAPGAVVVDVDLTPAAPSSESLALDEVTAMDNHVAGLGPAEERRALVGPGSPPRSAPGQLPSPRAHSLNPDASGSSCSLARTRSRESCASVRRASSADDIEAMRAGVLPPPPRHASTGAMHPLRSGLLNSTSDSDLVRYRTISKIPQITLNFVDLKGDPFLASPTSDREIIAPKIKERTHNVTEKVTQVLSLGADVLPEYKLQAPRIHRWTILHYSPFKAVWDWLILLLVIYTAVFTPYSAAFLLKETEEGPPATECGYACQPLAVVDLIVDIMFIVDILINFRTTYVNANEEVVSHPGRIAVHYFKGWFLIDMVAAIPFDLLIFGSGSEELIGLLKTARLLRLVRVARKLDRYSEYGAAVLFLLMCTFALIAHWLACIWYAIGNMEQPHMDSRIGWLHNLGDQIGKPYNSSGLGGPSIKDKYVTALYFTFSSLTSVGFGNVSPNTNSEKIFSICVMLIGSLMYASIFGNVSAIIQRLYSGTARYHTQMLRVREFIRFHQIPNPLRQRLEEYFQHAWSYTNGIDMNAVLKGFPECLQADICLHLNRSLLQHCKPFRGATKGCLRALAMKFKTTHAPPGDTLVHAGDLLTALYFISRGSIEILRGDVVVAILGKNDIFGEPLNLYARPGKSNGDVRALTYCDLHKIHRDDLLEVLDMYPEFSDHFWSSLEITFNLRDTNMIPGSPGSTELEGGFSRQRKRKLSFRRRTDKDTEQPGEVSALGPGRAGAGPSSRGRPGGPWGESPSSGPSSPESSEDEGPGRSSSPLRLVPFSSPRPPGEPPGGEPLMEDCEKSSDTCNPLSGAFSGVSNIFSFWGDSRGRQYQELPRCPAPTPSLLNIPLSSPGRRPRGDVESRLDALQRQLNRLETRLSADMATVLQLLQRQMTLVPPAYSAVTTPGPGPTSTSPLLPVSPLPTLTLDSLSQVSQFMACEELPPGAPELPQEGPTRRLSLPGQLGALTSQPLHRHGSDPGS

Row | Compound | hERG current change (%, negative = inhibition) at 10uM [%]
1 | COc1ccc(S(=O)(=O)NNC(=O)Nc2ccc(F)cc2)cc1 | 10.4
2 | O=C(O)CCC(=O)Nc1ccc(Br)cn1 | 4.02
3 | N#C/C(=C\c1ccc2c(c1)OCCO2)C(=O)Nc1ccc(C(=O)O)cc1 | 15.9
4 | COc1cccc(-c2nnc(SCC(=O)N3CCCC3=O)n2-c2ccccc2)c1 | -2.2
5 | CC(Sc1ccsc1[N+](=O)[O-])C(=O)NCc1ccco1 (centres unmarked) | 14.1
6 | CC1CCCN(C(=O)c2ccc(NC(=O)CC3SC(N4CCCC4)=NC3=O)cc2)C1 (centres unmarked) | -0.727
7 | Cc1cc(C)n(CCc2nc(-c3cccs3)cs2)n1 | 3.48
8 | C=C1C(=O)O[C@H]2C[C@@H](C)[C@@H]3C=CC(=O)[C@@]3(C)C[C@H]12 | 3.59
9 | Cc1cc2nc(-c3ccc(=O)[nH]c3)n(Cc3ccccc3)c2cc1C | -35.2
10 | Cc1cc([N+](=O)[O-])ccc1NC(=O)c1ccco1 | -5.21
11 | CCOC(=O)N1CCC(n2c(SCC(=O)NCCc3ccc(S(N)(=O)=O)cc3)nc3ccccc3c2=O)CC1 | 21
12 | CSc1ccccc1C(=O)N1CCCC(CNC(=O)c2ccc(F)cc2)C1 (centres unmarked) | 15.3
13 | Cc1cccc(OCCNC(=O)c2cc(-n3cnnc3)ccc2Cl)c1 | -4.41
14 | CN1CCN(c2ccc(S(=O)(=O)N3CCCCC3)cc2NC(=O)Cc2c(F)cccc2Cl)CC1 | -21.8
15 | CCN(CC)C(=O)CSc1nc2cc(OC)c(OC)cc2c(=O)n1Cc1ccc(Cl)cc1 | -77
16 | CCC1C(C#N)=C(N)Oc2c1c(=O)oc1ccccc21 (centres unmarked) | 5.71
17 | Cc1onc(-c2c(Cl)cccc2Cl)c1C(=O)OCC(=O)c1ccccc1 | -12.9
18 | COc1ccc(/C=C2/CCCC(C(=O)C(F)(F)F)=C2O)cc1OC | -8.9
19 | COc1ccc(CN2CCCC2C(=O)Nc2ccc(OC)c(OC)c2)cc1OC (centres unmarked) | 9.17

Row | Compound | hERG current change (%, negative = inhibition) at 10uM [%]
20 | Clc1ccc(-c2csc(N/N=C\c3cccnc3)n2)cc1 | 6.05
21 | CCC(c1nnc(SCC(=O)Nc2ccc(NC(C)=O)cc2)n1Cc1ccccc1)N(C)C (centres unmarked) | -18.7
22 | COc1ccc(-n2c(SCC(N)=O)nc3sc4c(c3c2=O)CCC4)cc1 | -16.9
23 | Cc1cc(C)n2nc(SCc3cccc(S(=O)(=O)N(C)C)c3)nc2n1 | 10.2
24 | C=CCOc1c(Cl)cc(CNCCCN2CCOCC2)cc1OC.Cl | -17.2
25 | CCN(c1ccccc1)c1nc2ccsc2c(=O)s1 | -0.901
26 | CN(C)c1ccc(C2N3CC4(C)CN2CC(C)(C3)C4O)cc1 (centres unmarked) | 7.92
27 | Cc1ccccc1NC(=O)c1ccc2c(c1)C(=O)N(CCC(C)C)C2=O | -2.26
28 | O=C1CC(/C=C/c2ccccc2)(C(=O)NC2CCCC2)N1c1ccc(S(=O)(=O)N2CCCC2)cc1 (centres unmarked) | -2.15
29 | COC(=O)Nc1cc(C(F)(F)F)ccc1N1CCN(c2ccccc2)CC1 | 13.4
30 | COc1ccc(/C=C/C(=O)N2CCN(c3ccccn3)CC2)cc1 | -40.7
31 | Cc1cc(C(=O)O)ccc1NCc1cccnc1 | 20.1
32 | O=C(Nc1ccc(N2CCOCC2)cc1N1CCOCC1)c1ccc([N+](=O)[O-])cc1Cl | -3.5
33 | COc1cc(OC)cc(C(=O)Nc2cccc3nc(C)ccc23)c1 | 10.5
34 | CN(CC1CCCO1)S(=O)(=O)c1ccc(C(=O)Nc2ccc(S(N)(=O)=O)cc2)cc1 (centres unmarked) | 8.73
35 | O=c1c(Br)c(NCc2ccccc2)cnn1-c1ccc(F)cc1 | -4.27
36 | COc1ccc(N2C(=O)/C(=C\c3ccco3)N=C2SCC(=O)NC(C)(C)C)cc1Cl | 0.0159
37 | Cl.N=c1ccn(Cc2ccc(Cl)c(Cl)c2)cc1 | 2.55
38 | O=c1cc(CN2CCN(S(=O)(=O)c3ccc4c(c3)OCCO4)CC2)c2ccc(O)cc2o1 | -4.32

Row | Compound | hERG current change (%, negative = inhibition) at 10uM [%]
39 | Cc1nc(Nc2ccc(C(=O)O)cc2)nc(Nc2ccc(C(=O)O)cc2)c1[N+](=O)[O-] | 15.3
40 | Cc1cccc(NCc2ccc([N+](=O)[O-])s2)c1 | -26.7
41 | COc1ccc(NC(=S)N2CCCCC2c2cccnc2)cc1 (centres unmarked) | 5.47
42 | Cc1nc(NS(=O)(=O)c2ccccc2)sc1NC(=O)OCCN(C)C | 15
43 | CCOc1ccc(NC(=O)C2CCCN(S(=O)(=O)c3c(C)nn(C)c3C)C2)cc1 (centres unmarked) | -16.2
44 | COc1cccc(OCC(O)CN2CCN(c3ncccn3)CC2)c1.Cl (centres unmarked) | -11
45 | Cc1cc(C(=O)NNS(=O)(=O)c2ccccc2C(F)(F)F)nn1C(C)(C)C | 0.33
46 | CCCOc1ccc(-c2nn(-c3ccccc3)cc2/C=C2\SC(N)=NC2=O)cc1 | 2.92
47 | COc1ccc(NC(=O)CN(C)C2CCCCC2)c([N+](=O)[O-])c1 | -8.84
48 | O=C(c1ccc(Cl)nc1)N1CCN(S(=O)(=O)c2ccc3c(c2)OCCO3)CC1 | -28.8
49 | Cc1ncc([N+](=O)[O-])n1Cc1cccc2ccccc12 | -11.5
50 | CC1(C)Cc2c(sc(NC(=O)C(=O)N3CCCCC3)c2C(=O)O)CO1 | 12.8
51 | Cn1c(C(=O)O)c(CC(=O)NCc2cccnc2)c2ccccc21 | -5.43
52 | COc1ccc2c(C)cc(SCC#N)nc2c1 | 1.35
53 | O=C(CN1N=C(c2ccccc2)CCC1=O)NCc1ccccc1 | -6.78
54 | COc1ccc(CC(C)Nc2cccc(F)c2)cc1 (centres unmarked) | 17
55 | C=CCc1c(C)nc(-c2ccccc2)nc1Nc1ccccc1O | 5.18
56 | O=C(NC(=O)c1ccccc1O)c1ccc(C(F)(F)F)cc1 | 19.6
